# Source: the supplement of paper PMC8728848
# The other results are listed elsewhere or left out.
# B1: Siglec-E (Mus musculus), Q91Y57 (protein)
# chain: MLLLLLLLLLWGIKGVEGQNPQEVFTLNVERKVVVQEGLCVLVPCNFSYLKKRLTDWTDSDPVHGFWYREGTDRRKDSIVATNNPIRKAVKETRNRFFLLGDPWRNDCSLNIREIRKKDAGLYFFRLERGKTKYNYMWDKMTLVVTALTNTPQILLPETLEAGHPSNLTCSVPWDCGWTAPPIFSWTGTSVSFLSTNTTGSSVLTITPQPQDHGTNLTCQVTLPGTNVSTRMTTRLNVSYAPKNLTVTIYQGADSVSTILKNGSSLPISEGQSLRLICSTDSYPPANLSWSWDNLTLCPSKLSKPGLLELFPVHLKHGGVYTCQAQHALGSQHISLSLSPQSSATLSEMMMGTFVGSGVTALLFLSVCILLLAVRSYRRKPARPAVVAPHPDALKVSVSQNPLVESQADDSSEPLPSILEAAPSSTEEEIHYATLSFHEMKPMNLWGQQDTTTEYSEIKFPQRTAWP
# Assays:
# Experiment in all cases: glycan array binding signal (z-score within array); higher = stronger binding
# Settings in all cases: glycan notation: IUPAC condensed, linker removed
# [1] = molecular target: Fuc(a1-2)[GalNAc(b1-3)]Gal
# Procedure, shortened: (§1)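 Glycan array data were curated from 3228 arrays in the Consortium for Functional Glycomics database and kept only where the protein sequence was available. Glycan names were converted to IUPAC-condensed notation, and columns mapping to the same glycan were averaged. The binding signal is a within-array Z-score, averaged across arrays of the same protein sequence at different concentrations or buffers and across linkers. Negative Z-scores can be read as non-binding.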
# Fuc(a1-3)GlcNAc = molecular target: Fuc(a1-3)GlcNAc
# Procedure, shortened: as §1
# [2] = molecular target: Fuc(a1-3)[Gal(b1-4)]Glc6S
# Procedure, shortened: as §1
# [3] = molecular target: Fuc(a1-3)[Gal(b1-4)]GlcNAc
# Procedure, shortened: as §1
# [4] = molecular target: Fuc(a1-3)[Gal(b1-4)]GlcNAc(b1-2)Man
# Procedure, shortened: as §1
# [5] = molecular target: Fuc(a1-3)[Gal(b1-4)]GlcNAc(b1-2)Man(a1-3)[Fuc(a1-3)[Gal(b1-4)]GlcNAc(b1-2)Man(a1-6)]Man(b1-4)GlcNAc(b1-4)GlcNAc
# Procedure, shortened: as §1
# [6] = molecular target: Fuc(a1-3)[Gal(b1-4)]GlcNAc(b1-2)Man(a1-3)[Fuc(a1-3)[Gal(b1-4)]GlcNAc(b1-2)Man(a1-6)]Man(b1-4)GlcNAc(b1-4)[Fuc(a1-6)]GlcNAc
# Procedure, shortened: as §1
# [7] = molecular target: Fuc(a1-3)[Gal(b1-4)]GlcNAc(b1-3)Gal(b1-3)[Fuc(a1-4)]GlcNAc
# Procedure, shortened: as §1
# [8] = molecular target: Fuc(a1-3)[Gal(b1-4)]GlcNAc(b1-3)Gal(b1-4)[Fuc(a1-3)]GlcNAc
# Procedure, shortened: as §1
# [9] = molecular target: Fuc(a1-3)[Gal(b1-4)]GlcNAc(b1-3)Gal(b1-4)[Fuc(a1-3)]GlcNAc(b1-3)Gal(b1-4)[Fuc(a1-3)]GlcNAc
# Procedure, shortened: as §1
# [10] = molecular target: Fuc(a1-3)[Gal(b1-4)]GlcNAc(b1-3)GalNAc
# Procedure, shortened: as §1
# [11] = molecular target: Fuc(a1-3)[Gal(b1-4)]GlcNAc(b1-6)GalNAc
# Procedure, shortened: as §1
# [12] = molecular target: Fuc(a1-3)[Gal(b1-4)]GlcNAc(b1-6)[Gal(b1-3)GlcNAc(b1-3)]Gal(b1-4)Glc
# Procedure, shortened: as §1
# [13] = molecular target: Fuc(a1-3)[Gal(b1-4)]GlcNAc6S
# Procedure, shortened: as §1
# [14] = molecular target: Fuc(a1-3)[Gal3S(b1-4)]Glc
# Procedure, shortened: as §1
# [15] = molecular target: Fuc(a1-3)[Gal3S(b1-4)]GlcNAc
# Procedure, shortened: as §1
# [16] = molecular target: Fuc(a1-3)[Gal3S(b1-4)]GlcNAc6S
# Procedure, shortened: as §1
# [17] = molecular target: Fuc(a1-3)[GalNAc(b1-4)]GlcNAc
# Procedure, shortened: as §1
# [18] = molecular target: Fuc(a1-3)[GalNAc(b1-4)]GlcNAc6S
# Procedure, shortened: as §1
# Fuc(a1-4)GlcNAc = molecular target: Fuc(a1-4)GlcNAc
# Procedure, shortened: as §1
# Fuc(b1-3)GlcNAc = molecular target: Fuc(b1-3)GlcNAc
# Procedure, shortened: as §1
# Gal(a1-2)Gal = molecular target: Gal(a1-2)Gal
# Procedure, shortened: as §1
# Gal(a1-3)Gal = molecular target: Gal(a1-3)Gal
# Procedure, shortened: as §1
# Gal(a1-3)Gal(b1-3)GlcNAc = molecular target: Gal(a1-3)Gal(b1-3)GlcNAc
# Procedure, shortened: as §1
# [19] = molecular target: Gal(a1-3)Gal(b1-3)GlcNAc(b1-2)Man
# Procedure, shortened: as §1
# [20] = molecular target: Gal(a1-3)Gal(b1-3)GlcNAc(b1-2)Man(a1-3)[Gal(a1-3)Gal(b1-3)GlcNAc(b1-2)Man(a1-6)]Man(b1-4)GlcNAc(b1-4)GlcNAc
# Procedure, shortened: as §1
# [21] = molecular target: Gal(a1-3)Gal(b1-3)GlcNAc(b1-3)GalNAc
# Procedure, shortened: as §1
# [22] = molecular target: Gal(a1-3)Gal(b1-3)GlcNAc(b1-6)GalNAc
# Procedure, shortened: as §1
# [23] = molecular target: Gal(a1-3)Gal(b1-3)[Fuc(a1-4)]GlcNAc(b1-2)Man(a1-3)[Gal(a1-3)Gal(b1-3)[Fuc(a1-4)]GlcNAc(b1-2)Man(a1-6)]Man(b1-4)GlcNAc(b1-4)GlcNAc
# Procedure, shortened: as §1
# Gal(a1-3)Gal(b1-4)Glc = molecular target: Gal(a1-3)Gal(b1-4)Glc
# Procedure, shortened: as §1
# Gal(a1-3)Gal(b1-4)GlcNAc = molecular target: Gal(a1-3)Gal(b1-4)GlcNAc
# Procedure, shortened: as §1
# [24] = molecular target: Gal(a1-3)Gal(b1-4)GlcNAc(b1-2)Man
# Procedure, shortened: as §1
# [25] = molecular target: Gal(a1-3)Gal(b1-4)GlcNAc(b1-2)Man(a1-3)[Gal(a1-3)Gal(b1-4)GlcNAc(b1-2)Man(a1-6)]Man(b1-4)GlcNAc(b1-4)GlcNAc
# Procedure, shortened: as §1
# [26] = molecular target: Gal(a1-3)Gal(b1-4)GlcNAc(b1-3)GalNAc
# Procedure, shortened: as §1
# [27] = molecular target: Gal(a1-3)Gal(b1-4)GlcNAc(b1-6)GalNAc
# Procedure, shortened: as §1
# [28] = molecular target: Gal(a1-3)Gal(b1-4)[Fuc(a1-3)]GlcNAc
# Procedure, shortened: as §1
# [29] = molecular target: Gal(a1-3)Gal(b1-4)[Fuc(a1-3)]GlcNAc(b1-2)Man(a1-3)[Gal(a1-3)Gal(b1-4)[Fuc(a1-3)]GlcNAc(b1-2)Man(a1-6)]Man(b1-4)GlcNAc(b1-4)GlcNAc
# Procedure, shortened: as §1
# Gal(a1-3)GalNAc = molecular target: Gal(a1-3)GalNAc
# Procedure, shortened: as §1
# [30] = molecular target: Gal(a1-3)[Gal(a1-4)]Gal(b1-4)GlcNAc
# Procedure, shortened: as §1
# [31] = molecular target: Gal(a1-4)Gal(b1-3)GlcNAc(b1-2)Man(a1-3)[Gal(a1-4)Gal(b1-3)GlcNAc(b1-2)Man(a1-6)]Man(b1-4)GlcNAc(b1-4)GlcNAc
# Procedure, shortened: as §1
# Gal(a1-4)Gal(b1-4)Glc = molecular target: Gal(a1-4)Gal(b1-4)Glc
# Procedure, shortened: as §1
# Gal(a1-4)Gal(b1-4)GlcNAc = molecular target: Gal(a1-4)Gal(b1-4)GlcNAc
# Procedure, shortened: as §1
# [32] = molecular target: Gal(a1-4)Gal(b1-4)GlcNAc(b1-2)Man(a1-3)[Gal(a1-4)Gal(b1-4)GlcNAc(b1-2)Man(a1-6)]Man(b1-4)GlcNAc(b1-4)GlcNAc
# Procedure, shortened: as §1
# [33] = molecular target: Gal(a1-4)Gal(b1-4)GlcNAc(b1-3)Gal(b1-4)Glc
# Procedure, shortened: as §1
# Gal(a1-4)GlcNAc = molecular target: Gal(a1-4)GlcNAc
# Procedure, shortened: as §1
binder,measurement,setting,value
B1,glycan array binding signal (z-score),[1],-0.581
same,glycan array binding signal (z-score),Fuc(a1-3)GlcNAc,-0.426
same,glycan array binding signal (z-score),[2],0.093
same,glycan array binding signal (z-score),[3],0.419
same,glycan array binding signal (z-score),[4],-0.35
same,glycan array binding signal (z-score),[5],-0.551
same,glycan array binding signal (z-score),[6],-0.338
same,glycan array binding signal (z-score),[7],-0.496
same,glycan array binding signal (z-score),[8],0.353
same,glycan array binding signal (z-score),[9],-0.476
same,glycan array binding signal (z-score),[10],0.563
same,glycan array binding signal (z-score),[11],-0.184
same,glycan array binding signal (z-score),[12],0.034
same,glycan array binding signal (z-score),[13],0.65
same,glycan array binding signal (z-score),[14],-0.406
same,glycan array binding signal (z-score),[15],-0.387
same,glycan array binding signal (z-score),[16],-0.369
same,glycan array binding signal (z-score),[17],-0.32
same,glycan array binding signal (z-score),[18],-0.504
same,glycan array binding signal (z-score),Fuc(a1-4)GlcNAc,4.01
same,glycan array binding signal (z-score),Fuc(b1-3)GlcNAc,-0.213
same,glycan array binding signal (z-score),Gal(a1-2)Gal,0.223
same,glycan array binding signal (z-score),Gal(a1-3)Gal,-0.326
same,glycan array binding signal (z-score),Gal(a1-3)Gal(b1-3)GlcNAc,1.98
same,glycan array binding signal (z-score),[19],-0.324
same,glycan array binding signal (z-score),[20],0.298
same,glycan array binding signal (z-score),[21],-0.031
same,glycan array binding signal (z-score),[22],-0.337
same,glycan array binding signal (z-score),[23],1.76
same,glycan array binding signal (z-score),Gal(a1-3)Gal(b1-4)Glc,-0.331
same,glycan array binding signal (z-score),Gal(a1-3)Gal(b1-4)GlcNAc,-0.456
same,glycan array binding signal (z-score),[24],-0.325
same,glycan array binding signal (z-score),[25],0.197
same,glycan array binding signal (z-score),[26],-0.306
same,glycan array binding signal (z-score),[27],0.081
same,glycan array binding signal (z-score),[28],-0.381
same,glycan array binding signal (z-score),[29],6.54
same,glycan array binding signal (z-score),Gal(a1-3)GalNAc,-0.309
same,glycan array binding signal (z-score),[30],-0.489
same,glycan array binding signal (z-score),[31],1.04
same,glycan array binding signal (z-score),Gal(a1-4)Gal(b1-4)Glc,-0.433
same,glycan array binding signal (z-score),Gal(a1-4)Gal(b1-4)GlcNAc,-0.307
same,glycan array binding signal (z-score),[32],4.23
same,glycan array binding signal (z-score),[33],0.116
same,glycan array binding signal (z-score),Gal(a1-4)GlcNAc,-0.029
